Results: PubChem BioAssay AID488969 (Vanderbilt High Throughput Screening Facility, 2010)
The full ranking holds about 110,000 compounds; the median of “z-score” is about -0.1, and the highest 2% start at about 2. This is one part of the list. Activity calls are given as the source filed them.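 How the source made its calls: active means z-score in the third read window above 3 or below -3; inactive means the rest.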

What follows are molecules tested against Metabotropic glutamate receptor 8 (Rattus norvegicus) (UniProt P70579) (assay: mGluR8 Gi/Go-coupled signaling modulation – cell-based, rat, thallium flux, HTS, primary screen (AID 488969)). Details: HEK293 rat mGluR8, GIRK (G protein-gated inwardly rectifying potassium channel) thallium flux, FluoZin2; at 10 µM; stronger effect = higher value; submaximal glutamate (EC20) added with thallium.
UniProt P70579, sequence (P70579 whole entry, looked up): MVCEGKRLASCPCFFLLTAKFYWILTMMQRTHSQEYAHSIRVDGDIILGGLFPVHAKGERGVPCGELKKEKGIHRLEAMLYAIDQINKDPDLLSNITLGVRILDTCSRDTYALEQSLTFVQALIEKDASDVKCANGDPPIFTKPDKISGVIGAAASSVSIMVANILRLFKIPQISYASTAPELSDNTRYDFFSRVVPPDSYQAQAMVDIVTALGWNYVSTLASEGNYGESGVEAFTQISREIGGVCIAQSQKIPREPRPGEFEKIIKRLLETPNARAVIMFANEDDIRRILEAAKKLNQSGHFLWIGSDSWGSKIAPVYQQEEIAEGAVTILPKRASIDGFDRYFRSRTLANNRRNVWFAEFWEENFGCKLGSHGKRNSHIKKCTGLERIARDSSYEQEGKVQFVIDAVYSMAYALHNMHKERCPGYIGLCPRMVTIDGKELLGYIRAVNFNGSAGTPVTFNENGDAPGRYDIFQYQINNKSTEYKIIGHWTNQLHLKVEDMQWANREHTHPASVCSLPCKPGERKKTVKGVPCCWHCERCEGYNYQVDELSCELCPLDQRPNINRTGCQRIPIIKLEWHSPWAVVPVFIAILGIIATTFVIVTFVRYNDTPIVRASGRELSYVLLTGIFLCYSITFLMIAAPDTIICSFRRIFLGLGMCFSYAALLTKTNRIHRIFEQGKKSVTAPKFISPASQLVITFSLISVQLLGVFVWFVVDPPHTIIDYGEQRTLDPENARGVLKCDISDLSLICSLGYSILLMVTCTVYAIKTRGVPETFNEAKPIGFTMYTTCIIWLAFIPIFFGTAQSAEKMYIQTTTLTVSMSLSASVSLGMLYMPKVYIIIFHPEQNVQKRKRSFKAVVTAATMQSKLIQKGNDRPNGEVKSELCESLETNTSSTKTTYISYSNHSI

SMILES | z-score
O=C(O)c1ccc(CSc2nnc(COc3ccc(Cl)cc3Cl)o2)cc1 | -0.956
O=C(CCn1nnc2ccccc21)Nc1nnc(COc2ccccc2F)s1 | -0.232
COC(=O)c1sc(S(=O)(=O)NCc2cccs2)c(C(=O)OC)c1C | -0.608
COc1ccc(CCNS(=O)(=O)c2ccc(OC)cc2)cc1 | -0.167
CC(=O)Nc1cccc(C(=O)OCc2ccccc2)c1 | -0.205
CCOC(=O)C1CCN(Cc2cnc(Oc3ccc(C(C)(C)C)cc3)s2)CC1 | -0.141
O=C(CN1CCN(Cc2ccc(F)cc2Cl)C1=O)NCCc1ccc(Cl)cc1 | -0.188
O=C(CN1CCN(C(=O)N2CCOCC2)CC1)Nc1ccc(Br)cc1 | -0.0769
CCOC(=O)C1=C(C)N=C2c3ccccc3C(=O)C2C1c1ccc(Br)cc1 (stereo not given) | -0.196
CC(=O)Nc1ccc(SCC(=O)N(CCC#N)c2cc(C)cc(C)c2)cc1 | -0.254
CCc1nc2scc(-c3cccs3)c2c(=O)o1 | -0.0119
CC(=O)Cc1nsc(NC(=O)c2ccc(-c3cccc(C(F)(F)F)c3)o2)n1 | 0.0938
Cc1ccc2cccc(O)c2[n+]1[O-] | 0.155
COc1cc(/C=C/C(=O)OCC(=O)Nc2ccc(C)c(S(=O)(=O)N3CCCCC3)c2)ccc1O | -0.427
Cc1cccc(C)c1C(=NCCCN(C)C)c1ccccc1 | 0.959
COc1ccc(Nc2nc3ccccc3n3nnnc23)cc1 | -0.186
O=C(NC1CCCC1)C(c1cccs1)N(C(=O)c1ccco1)c1ccc2c(c1)OCO2 (stereo not given) | -0.208
CCc1nnc(NC(=O)/C=C/c2ccc(C)o2)s1 | -0.436
Cc1[nH]c(=O)[nH]c(=O)c1CSc1nnc([C@@H](NC(=O)OC(C)(C)C)C(C)C)o1 | -0.0451
COCCn1c(SCC(=O)OC(C)C)nnc1-c1ccccc1 | -0.0563
CCn1c2ccccc2c2nnc(SCC(=O)Nc3cc(C)on3)nc21 | -0.57
Cc1ccc(C(=O)N/C(=C\c2cccs2)C(=O)NCCc2c[nH]c3ccccc23)cc1 | -0.278
Cc1ccc(C)c(N2CCN(c3nc4ccccc4c(=O)n3Cc3ccccc3)CC2)c1 | 0.844
C=CCNC(=O)c1ccc2c(c1)nnn2C | 1.21

SMILES | z-score
COc1ccc(-c2nc(CC(=O)O)cs2)cc1 | -0.189
CCOc1ccc(-n2cnnn2)cc1S(=O)(=O)Nc1c(C)cccc1C | 0.922
O=C(CSc1nnc(CNC(=O)c2ccco2)o1)c1ccc(Cl)cc1 | 1.44
C/C(=N\Nc1cc(Cl)nc(C)n1)c1ccc(Cl)c(Cl)c1 | -0.151
O=C(N/N=C/c1ccccc1)c1c(O)c2ccccc2[nH]c1=O | -0.294
COC(=O)CSc1nnc(SCc2ccc(OC)cc2)s1 | active: -3.01
CC1=C(C(=O)Nc2ccccc2)C(c2ccco2)n2ncnc2N1 (stereo not given) | -0.45
CCN1CCN(CC(O)COc2cccc(OC)c2)CC1 (stereo not given) | 1.01
CCN(CC)c1ccc(-c2nnc(SCC(=O)Nc3ccccc3C#N)n2-c2ccccc2)cc1 | -0.885
O=S(=O)(Nc1ccncc1)c1ccc(Cl)cc1 | -0.16
Cc1cc(C)c2c(c1)cc(C)c1nnc(SCC(=O)Nc3ccccc3N3CCOCC3)n12 | 0.0516
COc1ccc(N(CC(=O)N2CCc3ccccc3C2)S(C)(=O)=O)cc1OC | 0.0527
Cc1ccc(OCC(=O)Nc2ccc(-c3nnc(-c4ccco4)o3)cc2)cc1 | 0.14
Cc1ccc(CN(CC(=O)NC2CCCC2)C(=O)CSc2nnc(COc3ccccc3)o2)cc1 | 0.165
Cc1ccc(NC(=O)CCSc2ccccn2)cc1 | 0.231
COc1ccc(/C=C/c2cc(=O)c3cc(Cl)ccc3o2)cc1 | -0.248
Cc1ccc(S(=O)(=O)N2CCCC2c2nc3ccccc3s2)cc1 (stereo not given) | 0.106
COc1ccc(NC(=O)NCc2cccnc2)cc1OC | 0.0502
Cc1nn(CC(=O)Nc2ccc3c(c2)nc(CN2CCCCC2)n3C)c(=O)c2ccccc12 | -0.07
COc1ccccc1C=NC(CO)C(O)c1ccc([N+](=O)[O-])cc1 (stereo not given) | 1.75
O=C(NCc1ccccc1Cl)c1cnn2cccnc12 | 0.242
c1ccc(-c2noc(CN3CCN(C(c4ccccc4)c4ccccc4)CC3)n2)cc1 | -0.00606
Cc1ccc(-c2nnn(CC(=O)NCCC3=CCCCC3)n2)cc1 | 1.16
CCOc1ccccc1Nc1nc(-c2sc(NC(=O)c3ccco3)nc2C)cs1 | -0.0936

SMILES | z-score
COCCOC(=O)C1=C(C)N(Cc2ccccc2)C(=O)NC1c1ccc(OC)cc1 (stereo not given) | -0.162
CN1CCC(N(C)C(=S)NC(=O)C23CC4CC(CC(C4)C2)C3)CC1 | 0.094
COc1cc(C2=NOC(C(=O)NCc3ccc(F)cc3)C2)cc(OC)c1OC (stereo not given) | 0.327
Fc1ccc(CNC(=S)Nc2ccc(OC(F)F)cc2)cc1 | 1.07
O=C(NCCCc1ccccc1)Nc1ccccc1 | 0.456
Cc1ccc(C(C)C)c(OCc2ccc(C(=O)N/N=C/c3ccc(O)c(O)c3)cc2)c1 | -0.162
Cc1cccc(N=C/C(C(=O)C(F)(F)F)=C(\O)c2ccco2)c1 | -0.299
Cn1nc(-c2ccccc2F)c2cc(C(=O)N3CCN(C(=O)c4ccco4)CC3)sc21 | -0.882
O=S(=O)(c1ccc(Cl)s1)N1CCC(Cc2ccccc2)CC1 | 0.0121
Cc1nn(CC(=O)NCc2ccc(OC(C)C)cc2)c(=O)c2cc3occc3n12 | -0.4
Cn1cc(S(=O)(=O)N2CCc3ccccc3C2)c(=O)n(C)c1=O | -0.0164
Cc1cc2cc(CNC(=O)c3ccc(S(=O)(=O)N4CCCCC4)cc3)ccc2n1C | 0.382
CCOC(=O)c1[nH]c(C)c(C(=O)OCC(=O)N(CC)C2CCS(=O)(=O)C2)c1C (stereo not given) | -0.798
Brc1ccc(-c2nnc3n2CCCCC3)cc1 | -0.275
COc1ccc(Oc2c(Cl)cnn(-c3ccc(C)cc3)c2=O)cc1 | 0.102
CC(C)c1c(O)c2c(n(-c3ccccc3)c1=O)CCCC2 | -0.462
O=C(Nn1cnnc1)c1cc2c(s1)CCCC2 | 0.889
COCC(=O)N(Cc1cc2ccc(C)cc2[nH]c1=O)c1ccc(OC)cc1 | -0.0778
COCCNC(=O)c1onc(CSc2ccc(F)c(F)c2)c1C(=O)O | -0.13
O=C(NC1CCCC1)c1ccc(CS(=O)(=O)c2cccc(C(F)(F)F)c2)o1 | 0.632
CNC(=S)Nc1cc(C(F)(F)F)ccc1Cl | -0.109
O=C(NC1CCCCC1)C(c1cccnc1)N(C(=O)CCl)c1ccc(F)cc1 (stereo not given) | 0.00996
